Measurements from PubChem BioAssay AID1240 (Sanford-Burnham Center for Chemical Genomics, 2008).
About 800 (1.6%) of roughly 50,000 compounds showed an effect of 50% or more. The list shows a part of the results.

The compounds below were run against Bcl-2-like protein 10 (Homo sapiens) (UniProt Q9HD36) (assay: Phenotype converters, Bcl-B/TR3 peptide binding displacement, primary biochemical FP (AID 1240;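 note: 0% = Bcl-B with tracer peptide and DMSO and 100% = tracer peptide lacking Bcl-B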)). Settings: GST-Bcl-B / FITC-TR3 peptide fluorescence polarization; stronger effect = higher value; compound at 3.75 mg/L.
UniProt Q9HD36, sequence (Q9HD36 whole entry, looked up): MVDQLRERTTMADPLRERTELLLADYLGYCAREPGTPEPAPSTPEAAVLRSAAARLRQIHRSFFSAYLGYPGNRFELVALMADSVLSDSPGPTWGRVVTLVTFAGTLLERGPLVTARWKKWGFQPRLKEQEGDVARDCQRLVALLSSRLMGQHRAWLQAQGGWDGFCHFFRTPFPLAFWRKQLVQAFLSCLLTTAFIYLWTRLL

Row | SMILES | displacement [%]
1 | Cc1c(C(=O)NN)c2cc(O)ccc2n1CCO | 24.3
2 | COc1ccc2oc(=O)c(NC(=O)c3ccccc3)cc2c1 | 3.5
3 | CCOC(=O)c1ccc(NC(=O)c2ccc(I)cc2)cc1 | 8.2
4 | Cc1ccc(N(CC(=O)O)S(C)(=O)=O)cc1 | 13.1
5 | OC(CN1CCCC1)Cn1c2ccc(Br)cc2c2cc(Br)ccc21 (centres undefined) | 10.2
6 | Brc1ccc(OCc2nc(-c3ccccn3)no2)cc1 | 1.6
7 | Cc1sc(NC(=O)c2ccc(F)cc2)c(C(=O)O)c1C | 9.6
8 | CCOC(=O)c1c[nH]c2c(Cl)c(Cl)ccc2c1=O | -10.6
9 | Cc1ccccc1NC(=O)/C=C/c1cccc([N+](=O)[O-])c1 | 2
10 | Cn1cnc([N+](=O)[O-])c1Sc1nccc(Nc2ccccc2)c1C#N | -2.7
11 | C=CCN(CC=C)C(=O)c1cc(OCC)c(OCC)c(OCC)c1 | -6.7
12 | COc1ccc(C(=O)/C=C/Nc2ccccc2NS(=O)(=O)c2ccc([N+](=O)[O-])cc2)cc1OC | 19.9
13 | CCC(C(=O)NC(c1ccccc1)c1ccccc1)c1ccccc1 (centres undefined) | 2.4
14 | Cc1cccc(OCC(=O)Nc2ccc(S(=O)(=O)Nc3ncccn3)cc2)c1 | 14.4
15 | COc1ccc(C(=O)N2CCN(C3CCCC(C)C3)CC2)cc1OC (centres undefined) | -1.5
16 | COc1ccc(N(CC(=O)NCCc2ccc(OC)c(OC)c2)S(=O)(=O)c2ccc(OC)c(OC)c2)cc1 | 11
17 | O=C(COc1ccc2ccccc2c1)Nc1cc(Cl)ccc1Cl | -34.9
18 | Cc1ccc(-c2ncnn2-c2ccc(F)c([N+](=O)[O-])c2)cc1 | -1.3
19 | CCc1ccc(NC(=O)C(=O)NCCCO)cc1 | 5
20 | Cc1cccc(NS(=O)(=O)c2ccc([N+](=O)[O-])cc2)n1 | 5.2
21 | CN(C)c1ccc(/C=C2\SC(=O)N(c3ccc(Cl)cc3)C2=O)cc1 | 15.3
22 | O=c1[nH]c(SC2C=CCCC2)nc2sc3c(c12)CCCC3 (centres undefined) | -2.5

Row | SMILES | displacement [%]
23 | COc1ccccc1/C=C1\SC(N2CCC(C)CC2)=NC1=O | -11
24 | CCCOC(=O)c1c(NC(=O)C2C3CCC(C3)C2C(=O)O)sc2c1CCC(C)C2 (centres undefined) | -18
25 | CN1C(=O)NC(=O)/C(=C/c2ccc(-c3ccc(F)cc3)o2)C1=O | 123
26 | O=C1NC(=S)S/C1=C/c1ccc(-c2ccc(F)cc2)o1 | -4.4
27 | O=C(O)c1cc(N2C(=O)c3ccc(Oc4ccc5c(c4)C(=O)N(c4ccc(O)c(C(=O)O)c4)C5=O)cc3C2=O)ccc1O | 3.9
28 | Cc1ccc(C(=O)Nc2ccc(I)cc2)o1 | -14.6
29 | O=C(O)CCCCCN1C(=O)C(=O)/C(=C(/O)c2ccc([N+](=O)[O-])cc2)C1c1ccccc1 (centres undefined) | -6
30 | CS(=O)(=O)N(CC(=O)Nc1cccc(C(F)(F)F)c1)c1ccc(Br)cc1 | 1.1
31 | COc1cccc(C(=O)Nc2ccc(Cc3ccncc3)cc2)c1 | 2
32 | CC1=CC(C)(C)NC(=S)N1NC(=O)c1ccccc1 | -16.9
33 | COc1ccc(N=Cc2c(O)n(-c3ccccc3F)c(=O)[nH]c2=O)c(OC)c1 | 1.6
34 | COc1ccc(CN=Cc2c(O)n(-c3ccccc3F)c(=O)[nH]c2=O)cc1 | 15.6
35 | CCc1ccc(OCC(=O)Nc2ccc(F)c([N+](=O)[O-])c2)cc1 | 3
36 | COc1ccc(CCN=Cc2c(C(F)(F)F)[nH]n(-c3nc4ccccc4s3)c2=O)cc1OC | 69.9
37 | C/C(=N\N1CCN(c2ccccc2)CC1)c1ccncc1 | 19.2
38 | O=C(NC(=O)C(Cl)(Cl)Cl)Nc1ccc(Cl)c(Cl)c1 | 2.9
39 | COC(=O)c1sccc1NC(=O)c1ccc2c(c1)OCO2 | -13.2
40 | O=C(Cc1ccccc1)Nc1ccc(F)cc1 | 4.3
41 | CCOC(=O)/C(C#N)=C/c1ccc(OC)cc1OC | 15.7
42 | CCSC1=C(C#N)C(c2ccc([N+](=O)[O-])cc2)CC(=O)N1 (centres undefined) | -1.5
43 | Cc1nc2cc(-c3ccc(F)cc3)nn2c(C)c1Cl | 1.1
44 | CC(=O)c1ccc(NC(=O)c2cc3c(ccc4ccccc43)oc2=O)cc1 | -2.8

Row | SMILES | displacement [%]
45 | CC1=NN(c2ccc(S(N)(=O)=O)cc2)C(=O)/C1=C\c1ccc(-c2ccc(Cl)cc2)o1 | 12.4
46 | CCCOc1ccc(C(=O)Nc2ccc(N3CCCCC3)cc2)cc1 | -10.6
47 | Cc1cc(C)c(C)c(OCCn2ccnc2)c1 | -10.7
48 | Cc1ccc(C(=O)NNC(=O)c2cccc(C)c2O)cc1 | 13.4
49 | O=C(Nc1cc(Cl)ccc1Cl)c1ccc(Cl)c(Cl)c1 | -0.6
50 | O=C1C2C3C=CC(C3)C2C(=O)N1/N=C/c1ccc(-c2ccccc2[N+](=O)[O-])o1 (centres undefined) | 16.6
51 | CCOc1ccc(C(=O)N(C(=O)c2ccc(OCC)cc2)c2ncccc2C)cc1 | -0.9
52 | O=C(c1ccc2c(c1)OCCO2)C1CC1 | 13.6
53 | Cc1ccc(OCC(=O)Nc2ccc(N(C)C)cc2)cc1 | 2.6
54 | Cc1cccc(C)c1OCCN1CCCC1 | 4.2
55 | COc1cc(-c2nc3nc(C)c(Br)cc3[nH]2)ccc1O | -0.9
56 | CCOC(=O)c1c(NC(=O)CC2Nc3ccccc3NC2=O)sc(C)c1C (centres undefined) | -9.5
57 | COc1ccc(N(CC(=O)NCc2ccccc2)S(=O)(=O)c2ccccc2)cc1 | 16.5
58 | CC(=O)Nc1ccc(NC(=O)c2ccc(OCC(C)C)cc2)cc1 | -1.6
59 | CCOC(=O)C1=C(C)N(C)C(=O)NC1c1cccc(O)c1 (centres undefined) | -14.5
60 | Cc1ccc(NC(=O)c2ccc3ccccc3n2)cc1 | -45.5
61 | CCC1=NN2C(=N)/C(=C/c3ccc(OCCOc4cccc(OC)c4)cc3)C(=O)N=C2S1 | -6
62 | COc1cc(-c2noc(-c3ccc(Cl)cc3)n2)cc(OC)c1OC | 3.5
63 | COc1ccccc1CNC(=O)CN(c1ccc(C)cc1)S(=O)(=O)c1ccc(C)cc1 | 6.5
64 | CS(=O)(=O)N(CC(=O)Nc1ccccc1Cl)c1ccc(Br)cc1 | -6.4
65 | O=c1c(Br)c(N2CCCC2)cnn1-c1ccccc1 | 5.4
66 | Cc1ccc(CCSc2ccc(F)cc2)cn1 | 4.1

Row | SMILES | displacement [%]
67 | O=C1CCCC2=C1C(c1ccc(Cl)cc1)Nc1ccc(C(=O)c3ccccc3)cc1N2 (centres undefined) | 8.1
68 | O=C(Nc1cccc(C(F)(F)F)c1)c1ccc(CN2CCc3ccccc3C2)cc1 | 6.9
69 | CC1(C)CC(=NOC(=O)N2c3ccccc3C=Cc3ccccc32)CC(C)(C)N1 | -0.3
70 | O=C(COc1ccc(/C=N/NS(=O)(=O)c2ccccc2)cc1)NCCc1ccccc1 | -8
71 | CC(=O)Oc1ccc(/C=C2\C=C(c3ccc(Br)cc3)OC2=O)c(OC(C)=O)c1 | 3.4
72 | CCCCc1ccc(/C=C2/C(=O)ON=C2c2ccccc2)s1 | 40.8
73 | O=C(O)c1ccc2c(c1)C(=O)N(c1ccc(-c3nc4cc(N5C(=O)c6ccc(C(=O)O)cc6C5=O)ccc4[nH]3)cc1)C2=O | 17
74 | O=C1NC(=S)NC(=O)C1=Cc1ccccc1OCCOc1ccc([N+](=O)[O-])cc1 | 8
75 | COC(=O)C1=C(C)N(c2cccc(C(F)(F)F)c2)C(=O)C1 | -6.4
76 | COc1ccc(C2CC(=O)C3=C(C2)Nc2ccccc2NC3c2cccs2)cc1 (centres undefined) | -6.8
77 | CC(C)c1nc2c(c3c1[nH]c1ccccc13)C(=O)CC(C)(C)C2 | 11.8
78 | O=[N+]([O-])c1ccc(N2CCN(c3nc4ccc([N+](=O)[O-])cc4s3)CC2)cc1 | -19
79 | CC1(C)CC(=O)C=C(Nc2ccccc2C#N)C1 | 14.4
80 | O=C(c1ccccc1O)N1N=CCC1(O)c1ccc(Cl)cc1 (centres undefined) | -7.7
81 | O=C(Nc1cc(C(F)(F)F)ccc1Cl)C(O)(c1ccccc1)c1ccccc1 | 5.1
82 | Cc1ccc(C(=O)Nc2nc(C34CC5CC(CC(C5)C3)C4)c(C)s2)cc1 | 11.4
83 | Cc1ccc([N+](=O)[O-])cc1Cc1ccccc1 | 10.2
84 | O=C(N/N=C/c1ccc([N+](=O)[O-])o1)C1COc2ccccc2O1 (centres undefined) | 0.6
85 | Nc1nc2c(s1)-c1ccccc1CC2 | 15.4
86 | O=C1/C(=C\c2cc([N+](=O)[O-])ccc2O)SC(=S)N1c1cccc(C(F)(F)F)c1 | -16.7
87 | O=C(O)c1cccnc1SCc1ccc([N+](=O)[O-])cc1 | 1.8
88 | C=C(C)c1cccc(C(C)(C)NC(=O)N(Cc2ccccc2)Cc2ccco2)c1 | 5.6

Row | SMILES | displacement [%]
89 | COc1cc(OC)c(C2Nc3ccccc3NC3=C2C(=O)CC(C)(C)C3)cc1OC (centres undefined) | -0.6
90 | O=C(Nc1cccc(Br)c1)C1CC1 | -1.2
91 | Cc1cccc2c(N=NC(=O)COc3cccc(Br)c3)c(O)n(C)c12 | 4.9
92 | CC(C)CN1C(=O)/C(=C/c2cccc3ccccc23)SC1=S | 8.3
93 | O=C(c1ccccc1C(F)(F)F)N1CCOCC1 | 12.1
94 | CC(C)C(=O)NS(=O)(=O)c1ccc(NS(C)(=O)=O)cc1 | 17.8
95 | Cc1nn(-c2ccccc2)c(C)c1/C=N/NC(=O)CSc1nc2ccccc2[nH]1 | -6
96 | Cc1cc(-c2ccccc2)nc2cc(C(=O)N3CCCC3)nn12 | 9.1
97 | COC(=O)c1c(N)sc2c1CCC(c1ccccc1)C2 (centres undefined) | 0
98 | O=C(N/N=C/c1ccc(OC(=O)c2ccccc2Br)cc1)c1ccccn1 | 8.6
99 | CCOc1ccccc1C(=O)Nc1cc(C)ccc1C | -1.5
100 | CC(=O)Oc1cccc2c1C(=O)c1ccccc1C2=O | 6.5
101 | COc1ccc(CCNC(=O)C(=O)Nc2ccc3c(c2)OCCO3)cc1OC | 3.4
102 | C=CCc1c(C)nc2c(C)c(-c3ccc(C)cc3)[nH]n2c1=O | 11.5
103 | Cc1c(-c2ccc(Cl)s2)nc2ccccc2c1C(=O)O | 14.5
104 | COc1ccccc1CNC(=O)c1ccc(OC)c(OC)c1 | -0.2
105 | COC(=O)C(C(=O)OC)C1=C/C(=N/S(=O)(=O)c2ccc(C)cc2)c2ccccc2C1=O | 19
106 | Cn1c(O)c(N=Nc2ccc(Br)cc2)c(=O)[nH]c1=O | -8.8
107 | O=[N+]([O-])c1cccc(S(=O)(=O)NCc2ccc(F)cc2)c1 | -7.2
108 | COc1ccc(C2/C(=C(\O)c3ccc(C)cc3)C(=O)C(=O)N2c2ncc(S(=O)(=O)c3ccc([N+](=O)[O-])cc3)s2)cc1 (centres undefined) | 10.8
109 | CCOc1ccc(N2C(=O)/C(=C/c3ccc(N(CC)CC)o3)C(=O)NC2=S)cc1 | 10.7
